# This is one part of the list.
# B1: Banana lectin (Musa acuminata) (protein)
# chain: MNGAIKVGAWGGNGGSAFDMGPAYRIISVKIFSGDVVDAVDVTFTYYGKTETRHFGGSGGTPHEIVLQEGEYLVGMKGEFGNYHGVVVVGKLGFSTNKKSYGPFGNTGGTPFSLPIAAGKISGFFGRGGDFIDAIGVYLEP
# How the values were obtained:
# Experiment in all cases: glycan array binding signal (z-score within array); higher = stronger binding
# Details in all cases: glycan notation: IUPAC condensed, linker removed
# [1] = target: Fuc(a1-2)[GalNAc(b1-3)]Gal
# Method in brief: (§1)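 The Consortium for Functional Glycomics database supplied 3228 glycan arrays, of which those lacking an available protein sequence were dropped. The binding signal, a within-array Z-score, was averaged across arrays of the same protein sequence and across linkers. Negative scores can be read as non-binding.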
# Fuc(a1-3)GlcNAc = target: Fuc(a1-3)GlcNAc
# Method in brief: as §1
# [2] = target: Fuc(a1-3)[Gal(b1-4)]Glc6S
# Method in brief: as §1
# [3] = target: Fuc(a1-3)[Gal(b1-4)]GlcNAc
# Method in brief: as §1
# [4] = target: Fuc(a1-3)[Gal(b1-4)]GlcNAc(b1-2)Man
# Method in brief: as §1
# [5] = target: Fuc(a1-3)[Gal(b1-4)]GlcNAc(b1-2)Man(a1-3)[Fuc(a1-3)[Gal(b1-4)]GlcNAc(b1-2)Man(a1-6)]Man(b1-4)GlcNAc(b1-4)GlcNAc
# Method in brief: as §1
# [6] = target: Fuc(a1-3)[Gal(b1-4)]GlcNAc(b1-2)Man(a1-3)[Fuc(a1-3)[Gal(b1-4)]GlcNAc(b1-2)Man(a1-6)]Man(b1-4)GlcNAc(b1-4)[Fuc(a1-6)]GlcNAc
# Method in brief: as §1
# [7] = target: Fuc(a1-3)[Gal(b1-4)]GlcNAc(b1-3)Gal(b1-3)[Fuc(a1-4)]GlcNAc
# Method in brief: as §1
# [8] = target: Fuc(a1-3)[Gal(b1-4)]GlcNAc(b1-3)Gal(b1-4)[Fuc(a1-3)]GlcNAc
# Method in brief: as §1
# [9] = target: Fuc(a1-3)[Gal(b1-4)]GlcNAc(b1-3)Gal(b1-4)[Fuc(a1-3)]GlcNAc(b1-3)Gal(b1-4)[Fuc(a1-3)]GlcNAc
# Method in brief: as §1
# [10] = target: Fuc(a1-3)[Gal(b1-4)]GlcNAc(b1-3)GalNAc
# Method in brief: as §1
# [11] = target: Fuc(a1-3)[Gal(b1-4)]GlcNAc(b1-6)GalNAc
# Method in brief: as §1
# [12] = target: Fuc(a1-3)[Gal(b1-4)]GlcNAc(b1-6)[Gal(b1-3)GlcNAc(b1-3)]Gal(b1-4)Glc
# Method in brief: as §1
# [13] = target: Fuc(a1-3)[Gal(b1-4)]GlcNAc6S
# Method in brief: as §1
# [14] = target: Fuc(a1-3)[Gal3S(b1-4)]Glc
# Method in brief: as §1
# [15] = target: Fuc(a1-3)[Gal3S(b1-4)]GlcNAc
# Method in brief: as §1
# [16] = target: Fuc(a1-3)[Gal3S(b1-4)]GlcNAc6S
# Method in brief: as §1
# [17] = target: Fuc(a1-3)[GalNAc(b1-4)]GlcNAc
# Method in brief: as §1
# [18] = target: Fuc(a1-3)[GalNAc(b1-4)]GlcNAc6S
# Method in brief: as §1
# Fuc(a1-4)GlcNAc = target: Fuc(a1-4)GlcNAc
# Method in brief: as §1
# Fuc(b1-3)GlcNAc = target: Fuc(b1-3)GlcNAc
# Method in brief: as §1
# Gal(a1-2)Gal = target: Gal(a1-2)Gal
# Method in brief: as §1
# Gal(a1-3)Gal = target: Gal(a1-3)Gal
# Method in brief: as §1
# Gal(a1-3)Gal(b1-3)GlcNAc = target: Gal(a1-3)Gal(b1-3)GlcNAc
# Method in brief: as §1
# [19] = target: Gal(a1-3)Gal(b1-3)GlcNAc(b1-2)Man
# Method in brief: as §1
# [20] = target: Gal(a1-3)Gal(b1-3)GlcNAc(b1-2)Man(a1-3)[Gal(a1-3)Gal(b1-3)GlcNAc(b1-2)Man(a1-6)]Man(b1-4)GlcNAc(b1-4)GlcNAc
# Method in brief: as §1
# [21] = target: Gal(a1-3)Gal(b1-3)GlcNAc(b1-3)GalNAc
# Method in brief: as §1
# [22] = target: Gal(a1-3)Gal(b1-3)GlcNAc(b1-6)GalNAc
# Method in brief: as §1
# [23] = target: Gal(a1-3)Gal(b1-3)[Fuc(a1-4)]GlcNAc(b1-2)Man(a1-3)[Gal(a1-3)Gal(b1-3)[Fuc(a1-4)]GlcNAc(b1-2)Man(a1-6)]Man(b1-4)GlcNAc(b1-4)GlcNAc
# Method in brief: as §1
# Gal(a1-3)Gal(b1-4)Glc = target: Gal(a1-3)Gal(b1-4)Glc
# Method in brief: as §1
# Gal(a1-3)Gal(b1-4)GlcNAc = target: Gal(a1-3)Gal(b1-4)GlcNAc
# Method in brief: as §1
# [24] = target: Gal(a1-3)Gal(b1-4)GlcNAc(b1-2)Man
# Method in brief: as §1
# [25] = target: Gal(a1-3)Gal(b1-4)GlcNAc(b1-2)Man(a1-3)[Gal(a1-3)Gal(b1-4)GlcNAc(b1-2)Man(a1-6)]Man(b1-4)GlcNAc(b1-4)GlcNAc
# Method in brief: as §1
# [26] = target: Gal(a1-3)Gal(b1-4)GlcNAc(b1-3)GalNAc
# Method in brief: as §1
# [27] = target: Gal(a1-3)Gal(b1-4)GlcNAc(b1-6)GalNAc
# Method in brief: as §1
# [28] = target: Gal(a1-3)Gal(b1-4)[Fuc(a1-3)]GlcNAc
# Method in brief: as §1
# [29] = target: Gal(a1-3)Gal(b1-4)[Fuc(a1-3)]GlcNAc(b1-2)Man(a1-3)[Gal(a1-3)Gal(b1-4)[Fuc(a1-3)]GlcNAc(b1-2)Man(a1-6)]Man(b1-4)GlcNAc(b1-4)GlcNAc
# Method in brief: as §1
# Gal(a1-3)GalNAc = target: Gal(a1-3)GalNAc
# Method in brief: as §1
# [30] = target: Gal(a1-3)[Gal(a1-4)]Gal(b1-4)GlcNAc
# Method in brief: as §1
# [31] = target: Gal(a1-4)Gal(b1-3)GlcNAc(b1-2)Man(a1-3)[Gal(a1-4)Gal(b1-3)GlcNAc(b1-2)Man(a1-6)]Man(b1-4)GlcNAc(b1-4)GlcNAc
# Method in brief: as §1
# Gal(a1-4)Gal(b1-4)Glc = target: Gal(a1-4)Gal(b1-4)Glc
# Method in brief: as §1
# Gal(a1-4)Gal(b1-4)GlcNAc = target: Gal(a1-4)Gal(b1-4)GlcNAc
# Method in brief: as §1
# [32] = target: Gal(a1-4)Gal(b1-4)GlcNAc(b1-2)Man(a1-3)[Gal(a1-4)Gal(b1-4)GlcNAc(b1-2)Man(a1-6)]Man(b1-4)GlcNAc(b1-4)GlcNAc
# Method in brief: as §1
# [33] = target: Gal(a1-4)Gal(b1-4)GlcNAc(b1-3)Gal(b1-4)Glc
# Method in brief: as §1
# Gal(a1-4)GlcNAc = target: Gal(a1-4)GlcNAc
# Method in brief: as §1
binder,measurement,setting,value
B1,glycan array binding signal (z-score),[1],-0.192
same,glycan array binding signal (z-score),Fuc(a1-3)GlcNAc,-0.196
same,glycan array binding signal (z-score),[2],-0.189
same,glycan array binding signal (z-score),[3],-0.193
same,glycan array binding signal (z-score),[4],-0.193
same,glycan array binding signal (z-score),[5],-0.17
same,glycan array binding signal (z-score),[6],-0.19
same,glycan array binding signal (z-score),[7],-0.191
same,glycan array binding signal (z-score),[8],-0.179
same,glycan array binding signal (z-score),[9],-0.197
same,glycan array binding signal (z-score),[10],-0.193
same,glycan array binding signal (z-score),[11],-0.194
same,glycan array binding signal (z-score),[12],-0.195
same,glycan array binding signal (z-score),[13],-0.192
same,glycan array binding signal (z-score),[14],-0.192
same,glycan array binding signal (z-score),[15],-0.192
same,glycan array binding signal (z-score),[16],-0.184
same,glycan array binding signal (z-score),[17],-0.183
same,glycan array binding signal (z-score),[18],-0.195
same,glycan array binding signal (z-score),Fuc(a1-4)GlcNAc,-0.195
same,glycan array binding signal (z-score),Fuc(b1-3)GlcNAc,-0.194
same,glycan array binding signal (z-score),Gal(a1-2)Gal,-0.191
same,glycan array binding signal (z-score),Gal(a1-3)Gal,-0.205
same,glycan array binding signal (z-score),Gal(a1-3)Gal(b1-3)GlcNAc,-0.192
same,glycan array binding signal (z-score),[19],-0.176
same,glycan array binding signal (z-score),[20],-0.168
same,glycan array binding signal (z-score),[21],-0.196
same,glycan array binding signal (z-score),[22],-0.194
same,glycan array binding signal (z-score),[23],0.416
same,glycan array binding signal (z-score),Gal(a1-3)Gal(b1-4)Glc,-0.199
same,glycan array binding signal (z-score),Gal(a1-3)Gal(b1-4)GlcNAc,-0.193
same,glycan array binding signal (z-score),[24],-0.195
same,glycan array binding signal (z-score),[25],-0.129
same,glycan array binding signal (z-score),[26],-0.194
same,glycan array binding signal (z-score),[27],-0.193
same,glycan array binding signal (z-score),[28],-0.194
same,glycan array binding signal (z-score),[29],-0.173
same,glycan array binding signal (z-score),Gal(a1-3)GalNAc,-0.194
same,glycan array binding signal (z-score),[30],-0.194
same,glycan array binding signal (z-score),[31],0.227
same,glycan array binding signal (z-score),Gal(a1-4)Gal(b1-4)Glc,-0.199
same,glycan array binding signal (z-score),Gal(a1-4)Gal(b1-4)GlcNAc,-0.199
same,glycan array binding signal (z-score),[32],-0.166
same,glycan array binding signal (z-score),[33],-0.192
same,glycan array binding signal (z-score),Gal(a1-4)GlcNAc,-0.194

# Reference: the supplement of paper PMC8728848
